In PubChem BioAssay AID1508624 (National Center for Advancing Translational Sciences (NCATS), 2021):
In all, about 48,000 compounds went through this assay and about 120 (0.25%) were called active. Not shown: some 4% with an inconclusive outcome. Calls follow the shape of the dose curve; as a rule, active = well fitted activation curve with a large enough effect; inconclusive = small, poorly fitted or top-dose-only effect, or another doubt; inactive = no such curve, though single readings can be large or run the other way. The list shows a part of the results.

experiment: Primary qHTS for Identification of Small Molecule Activators of Huntingtin-Antisense Promoter Activity; details: HEK293 HTT-AS promoter firefly luciferase reporter (activity 0% = vehicle and -100% = no light), 24 h; series mostly up to 57.5 µM; activity change, positive = activation: at the top concentration; also: nearly all actives have a fitted effect of over 55% in size
Outline: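 Quantitative HTS used concentration series of up to 57.5 uM final on HEK293 luciferase reporter cells, 24 h at 37 degrees C. Readout was Dual-Glo firefly luminescence.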

Activity change, positive = activation, inactive:
COc1ccc(-c2cc(C(F)(F)F)nc(SCC(=O)N(C)Cc3ccccc3)n2)cc1OC -36.1%
COc1ccc2nc(S(=O)Cc3ncc(C)c(OC)c3C)[nH]c2c1 (centres undefined)
CCN1c2ccccc2-c2nc(SCC(=O)Nc3cccc(C(F)(F)F)c3)ncc2S1(=O)=O -25.7%
CCC(C)(C)NS(=O)(=O)c1cc(-c2cc(C)no2)ccc1C -21.2%
COc1cc(O)ccc1C1CC(=O)Nc2c1c(=O)nc(SCc1ccccc1C)n2C (centres undefined) -15%
Cc1ccc(C)c(CN2C(=O)c3ccccc3S(=O)c3ccc(C(=O)N4CCC(C)CC4)cc32)c1 (centres undefined) -38.1%
COc1ccc(CNc2oc(-c3ccc(COc4ccc(Cl)cc4)o3)nc2C#N)cc1 -60.4%
CCOC(=O)c1cccc(NC(=O)c2cc(S(=O)(=O)N3CCCCCC3)cn2C)c1 -37.5%
CCOC(=O)CSc1nc2sc3c(c2c(=O)n1Cc1ccccc1)CCC(C(C)(C)C)C3 (centres undefined) 12.8%
COc1ccc(CNC(=O)c2c(Nc3ccc(OC)cc3OC)sc(C(=O)c3ccc(Cl)cc3)c2N)cc1 -19.2%
O=C(CN1C(=O)C2(CCCC2)NC[C@H]1c1cc(F)cc(F)c1)Nc1ccc2c(c1)C[C@@]1(C2)C(=O)Nc2ncccc21 -11.2%
CCN(CC)C(=O)CSc1nc2cc3c(cc2c(=O)n1CCCCCC(=O)NCCc1ccc(OC)c(OC)c1)OCO3 -18%
COc1ccc(CNC(=O)c2ccc3c(c2)N(Cc2ccccc2F)C(=O)c2ccccc2S3(=O)=O)cc1 -15.8%
CCOc1ccc(NC(=O)c2c(NCc3sccc3C)sc3c2CCCCC3)cc1 -15.2%
COCCNC(=O)CCc1c(C)nc2c(c(C)nn2-c2ccc(C)cc2)c1C -12.1%
Cc1cc(F)ccc1NC(=O)CN(C)S(=O)(=O)c1ccc(C(=O)N2CCOCC2)s1 -6.78%
N#Cc1c(C(F)(F)F)cc(-c2cccs2)nc1SCC(=O)Nc1ccc(F)cc1 -23.1%
CCCN(CCC)c1nc(-c2ccccc2F)nc2ccccc12 -12.8%
O=C(CSc1nc2c([nH]c3ccccc32)c(=O)n1-c1ccc(F)cc1)NC1CCCCC1 -39.5%
CCc1ccccc1NC(=O)CSC1=Nc2ccccc2C2=NC(Cc3ccccc3)C(=O)N12 (centres undefined) -18.3%
O=C(COc1ccc([N+](=O)[O-])cc1)Nc1cccc2cccnc12 1.79%
COc1ccc(OCc2ccc(-c3nc(C#N)c(N4CCN(c5cccc(Cl)c5)CC4)o3)o2)cc1 -7.34%
Cc1ccc(-n2nc(C)c3c(C(=O)NCc4ccc(F)cc4)cc(C)nc32)cc1 -13.6%
Cc1cccc(N2CC(C)Cn3c2nc2c3c(=O)n(CC(=O)O)c(=O)n2C)c1 (centres undefined) -4.83%
CCc1cccc(NC(=O)CCc2nc3cccnc3n2-c2ccccc2)c1 -9.55%
CSc1ccc(CCNC(=O)c2ccc(CS(=O)(=O)c3ccc(Br)cc3)o2)cc1 -32.5%
COCCNC(=O)c1cccc(Nc2nc3ccccc3n3nnnc23)c1 -9.19%
CCOc1cc(CNC(=O)c2ccc3c(c2)N(C)C(=O)C2CCCCN32)cc(OCC)c1OCC (centres undefined) -24%
O=C(Nc1ccc(F)cc1F)c1cc2c(=O)n3ccccc3nc2s1 5.52%
CCOC(=O)N1CCc2c(sc(NCc3ccc(N(C)C)cc3)c2C(=O)Nc2ccc(OC)cc2)C1 -35.1%
CC1CCc2c(sc(NC(=O)c3ccc(Cl)cc3Cl)c2C#N)C1 (centres undefined) 0.732%
COc1ccc(CNC(=O)c2cc3cc(S(=O)(=O)N4CCCCC4)ccc3n2C)c(OC)c1 -26.4%
O=C1N(Cc2cccc(C(F)(F)F)c2)c2ccccc2S(=O)(=O)N1c1cccc(Cl)c1 -32.7%
COc1ccc(NC(=O)CCc2c(C)nc3c(c2C)c(=O)n(C)c(=O)n3C)cc1OC -14.3%
COc1ccc(NC(=O)CSc2nc(-c3cccs3)cc(C(F)(F)F)c2C#N)cc1 8.19%
Cc1c(Cl)cccc1N1C(N)=C(C#N)C(c2cc(CN3CCOCC3)cs2)C2=C1CCCC2=O (centres undefined) -15.2%
Cc1cc(NC(=O)NCc2ccc3c(c2)CCN3C(=O)c2ccccc2)ccc1Br -45.9%
CCOc1ccc(S(=O)(=O)c2cn(Cc3ccccc3)c3ccc(OCC)cc3c2=O)cc1 -15.7%
CC(C)(C)OC(=O)N1CCC(c2c(C(=O)NCc3ccco3)cnn2-c2ccccc2)CC1 -12.9%
Cc1ccc(NC(=O)Cn2cnc3nc4c(cc3c2=O)CCCC4)cc1Cl 2.54%
Cc1cc(=O)n2nc(N3CCC(C(=O)NCc4ccccc4)CC3)sc2n1 -5.83%
COc1ccc2cc(C(=O)NCc3ccc4c(c3)CCN4C(=O)c3ccccc3)[nH]c2c1 14.5%
CCn1c(=O)cc(SCC(=O)NCc2ccccc2OC)c2ccccc21 1.42%
Cc1cccc(C(=O)NC(=O)Nc2ccc(-c3cc(C(F)(F)F)nn3-c3ccccc3)cc2)c1 -25.7%
COc1ccc(C(=O)Nc2ccc(OCc3cc(=O)n4ccsc4n3)cc2)cc1OC 0.958%
O=C(NCc1cccnc1)C(=O)NCC(c1cccnc1)N1CCN(c2ccccc2F)CC1 (centres undefined) -33.4%
O=C(Cn1cc(C(=O)c2ccco2)c2ccccc21)Nc1ccccc1Cl -25.8%
Cc1cc(C)c2c(=O)cc(C(=O)Nc3ccc(S(=O)(=O)N(C)Cc4ccccc4)cc3)oc2c1 -12%
O=C(C1CCN(S(=O)(=O)c2cccc3nonc23)CC1)N1CCN(c2ccccc2F)CC1 -27.6%
Cc1nn(-c2ccc(F)cc2)c(-n2cccc2)c1C(=O)NCCCN1CCN(c2cccc(Cl)c2)CC1 -44.4%
O=c1[nH]c2ccccc2c(=O)n1CCCl -3.05%
COc1cc(NC(=O)C2CCCN(S(=O)(=O)c3ccc4c(c3)CCCC(=O)N4)C2)cc(OC)c1 (centres undefined) -15%
COc1cc(Cl)c(C)cc1NC(=O)Cn1ncc2c(=O)oc3ccccc3c21 -7.13%
CCC(C(=O)OC)n1cnc2c(cnn2-c2ccc(F)cc2)c1=O (centres undefined) -2.65%
COc1ccc(-c2nc(SCC(=O)c3ccc(OC)c(Br)c3)n[nH]2)cc1 -32.7%
CSc1ncc(Cl)c(C(=O)Nc2ccc(S(=O)(=O)N3CCCC(C)C3)cc2)n1 (centres undefined) -39.5%
CCCC(=O)O[C@]1(C(=O)CO)CC[C@H]2[C@@H]3CCC4=CC(=O)CC[C@]4(C)[C@H]3[C@@H](O)C[C@@]21C -15.1%
CCC(Sc1nc2nccnc2c(=O)n1Cc1ccc(F)cc1)C(=O)NC1CCCCC1 (centres undefined) -10.1%
CCc1cccc(NC(=O)C2CCC(CNS(=O)(=O)c3csc(C(N)=O)c3)CC2)c1 (centres undefined) 1.07%
